Reference: PubChem BioAssay AID2546 (National Center for Advancing Translational Sciences (NCATS), 2010)
Among all 310,000 compounds or so, about 11,000 (3.5%) were called active. This list was built around the results that the source calls inconclusive (neither active nor inactive); the mix of calls is not that of the screen. Calls follow the shape of the dose curve; as a rule, active = well fitted inhibition curve with a large enough effect; inconclusive = small, poorly fitted or top-dose-only effect, or effect the other way; inactive = flat fitted curve, though single readings scatter. No potency is given beside an inconclusive call; the fits are too rough.

Assay: VP16 counterscreen qHTS for inhibitors of ROR gamma transcriptional activity;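 also: Gal4-VP16 expression switched on by copper sulfate through the metallothionein promoter; nearly all actives have a fitted effect of over 50% in size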
Settings: Drosophila S2 Gal4-VP16 UAS-luciferase, luminescence, 20 h; activity, negative = inhibition: at 53.6 µM (top of the series)
% is scaled to controls: 0 for no effect and ±100 for the full control effect; potency is read from the fitted curve at half-maximal effect; tags tell the direction and shape of the fitted curve.

Row | SMILES | activity, negative = inhibition | Potency
1 | COc1cc(NC(=S)NC(=O)c2c(OC)cccc2OC)ccc1NC(=O)c1cccs1 | inactive: -6.09% | –
2 | Cn1c(CNc2ccccc2O)nc2ccccc21 | – | inconclusive [inhibitor, single point]
3 | CC1=C(C)/C(=N\OS(=O)(=O)c2ccccc2)C=CC1=O | – | active: 2.51 µM
4 | C/C(=N/NC(=O)c1cc(C2CC2)[nH]n1)c1cccs1 | – | active: 10 µM
5 | COc1ccc(OC)c(N=c2ssnc2Cl)c1 | – | inconclusive [inhibitor, single point]
6 | Cc1ccc(O)c(C(=O)c2cnn(C(=O)COc3ccccc3C#N)c2)c1 | inactive: -5.36% | –
7 | N/C(=N\OC(=O)c1ccco1)c1ccc(Cl)cc1 | – | inconclusive [inhibitor, single point]
8 | CCC(=O)c1c[nH]c(C(=O)N2CCOCC2)c1 | inactive: -9.74% | –
9 | O=C(NC(=S)Nc1ccc2c(c1)OCCO2)c1ccco1 | – | inconclusive [inhibitor, single point]
10 | C=C(C)C(=O)OC1(C(F)(F)F)Oc2cc(C)ccc2NC1=O (stereo not given) | – | inconclusive [inhibitor, single point]
11 | CCOC(=O)c1ccc(NC(=S)N(Cc2cccnc2)Cc2ccco2)cc1 | inactive: -2.93% | –
12 | O=C(Nc1cccc(S(=O)(=O)N2CCCCC2)c1)c1ccc([N+](=O)[O-])o1 | – | inconclusive [inhibitor, single point]
13 | Cc1ccccc1N1C(=O)CC(Sc2nnc(-c3ccccc3)o2)C1=O (stereo not given) | – | active: 3.98 µM
14 | COc1ccc(NC(=S)Nc2cccc(C(F)(F)F)c2)c(C)c1 | – | inconclusive [inhibitor, single point]
15 | O=[N+]([O-])c1ncccc1OCc1ccc(Br)cc1F | inactive: -11.4% | –
16 | CCN(CC)S(=O)(=O)c1cc(C(=O)OCC(=O)Nc2ccc(-c3nc4ccc(C)cc4s3)cc2)ccc1F | – | active: 8.91 µM
17 | COc1ccc(O)c(C(=O)CC(=O)c2ccc(F)cc2)c1 | – | inconclusive [inhibitor, single point]
18 | O=S(=O)(NCc1ccncc1)c1ccc(S(=O)(=O)NCC2CCCO2)cc1 (stereo not given) | – | inconclusive [inhibitor, single point]
19 | NC(=O)CC(NC(=O)c1cccc(Br)c1)c1ccc(NCCN2CCOCC2)c([N+](=O)[O-])c1 (stereo not given) | – | inconclusive [inhibitor, single point]
20 | Cc1ccc(/C=c2/sc3nnc(-c4ccccc4Cl)n3c2=O)o1 | – | inconclusive [inhibitor, single point]
21 | O=C(Nc1ccc2nccnc2c1)Nc1ccccc1Cl | – | inconclusive [inhibitor, single point]
22 | Cn1c(=O)n(C)c2cc(/C=N/NC(=S)NCc3ccccc3)ccc21 | – | inconclusive [inhibitor, single point]
23 | CCCCN(C)S(=O)(=O)c1ccc(C(=O)Nc2nnc(CSC)o2)cc1 | – | active: 1.12 µM
24 | COc1ccccc1NC(=O)C(=O)/C=C(\O)c1ccccc1 | – | inconclusive [inhibitor, single point]
25 | COc1cccc2oc3cc(C#CC4(O)CCCCC4)ccc3c(=O)c12 | – | inconclusive [inhibitor, full curve, poor fit]

Row | SMILES | activity, negative = inhibition | Potency
26 | COc1cc(/C=N/Nc2nncc3ccccc23)cc(OC)c1OC | – | active: 11.2 µM
27 | Cc1ccc(OCCn2cc(C(=O)O)c3ccccc32)cc1 | – | inconclusive [inhibitor, partial curve, poor fit]
28 | Cc1ccc(C)c(N2CCN(C(=O)CN3C(=S)NC(C)(C)CC3C)CC2)c1 (stereo not given) | – | inconclusive [inhibitor, single point]
29 | O=C(NC12CC3CC(CC(C3)C1)C2)c1cc2nc(-c3ccco3)cc(C(F)(F)F)n2n1 | – | inconclusive [inhibitor, partial curve]
30 | CN1/C(=C\C=N\NC(=O)c2ccccc2Br)C(C)(C)c2ccccc21 | – | active: 1.26 µM
31 | CC(=O)Oc1ccc(/C=C2/CCc3ccccc3C2=O)cc1 | – | active: 10 µM
32 | Cc1ccc(NC(=O)CSc2nnc(-c3ccccc3C)o2)cc1C | – | inconclusive [inhibitor, single point]
33 | O=C(CCl)N1CCN2C(=O)c3ccccc3C12c1ccc(Cl)cc1 (stereo not given) | – | inconclusive [inhibitor, single point]
34 | Cc1ccc(NC(=S)NC(=O)Cc2ccccc2)c(O)c1 | – | inconclusive [inhibitor, single point]
35 | C=CCN1C(=O)S/C(=C/c2ccsc2)C1=O | inactive: 9.34% | –
36 | CC(C)n1cc(/C=N/Nc2ccc(C(=O)O)cc2)c2ccccc21 | – | active: 0.316 µM
37 | CCCc1nc2c(sc3nc4c(cc32)COC(C)(C)C4)c(=O)n1CCN(CC)CC | inactive: -13.8% | –
38 | FC(F)Sc1ccc(NC(=S)NCC2CCCCC2)cc1 | – | active: 10 µM
39 | CC1CCCCC1NC(=S)Nc1ccc(Cl)cc1Cl (stereo not given) | – | inconclusive [inhibitor, single point]
40 | Cc1nnsc1-c1onc(C)c1C(=O)Nc1cc(Cl)cc(Cl)c1 | inactive: -26.9% | –
41 | C/C(Cn1cnc([N+](=O)[O-])n1)=N\NC(=O)c1ccc(O)cc1O | – | inconclusive [inhibitor, full curve]
42 | COc1cccc(NC(=S)Nc2cc(C(=O)O)ccc2N2CC3CC(C2)c2cccc(=O)n2C3)c1 (stereo not given) | inactive: 3.86% | –
43 | NNC(=O)c1ccc(O)cc1O | – | active: 3.16 µM
44 | COc1ccc(-n2c(SCC(=O)NCC3CCCO3)nc3c([nH]c4ccccc43)c2=O)cc1 (stereo not given) | – | inconclusive [inhibitor, single point]
45 | O=C(c1cc(-c2ccc(O)cc2)on1)N1CCCCCC1 | inactive: 2.05% | –
46 | Cc1cc(F)ccc1S(=O)(=O)Nc1ccccc1C(=O)Nc1ccccc1-c1nc2ccccc2[nH]1 | – | inconclusive [inhibitor, single point]
47 | CC12CCC(c3n[nH]c(=S)nc31)C2(C)C (stereo not given) | – | inconclusive [inhibitor, single point]
48 | COC(=O)[C@@]1(Cc2ccc(OC)cc2)[C@H]2c3cc(C(=O)N(C)C)n(Cc4nc5ccccc5[nH]4)c3C[C@H]2CN1C(=O)c1ccccc1 | inactive: -19.4% | –
49 | CC(C)c1ccc(N=C2N=C(N)c3ccccc32)cc1 | inactive: 4.61% | –
50 | CN(NS(=O)(=O)c1ccc(Cl)cc1)c1ncc(C(F)(F)F)cc1Cl | – | active: 3.16 µM

Row | SMILES | activity, negative = inhibition | Potency
51 | O=C(COc1ccccc1)N(Cc1ccccc1)c1nc(-c2ccccc2)cs1 | inactive: -6.36% | –
52 | O=C(NNc1ncnc2c1cnn2-c1ccccc1)c1cccs1 | – | inconclusive [inhibitor, partial curve, poor fit]
53 | COc1ccc(CCNC(=S)Nc2ccc(OC)cc2)cc1 | – | active: 10 µM
54 | COc1cccc(C(=O)Nc2nnc(SCC(=O)Nc3ccc(NC(C)=O)cc3)s2)c1 | – | inconclusive [inhibitor, partial curve]
55 | N#Cc1c(N(CCO)CCO)nc(N)c2c(N)nc3c(c12)CC(=O)N3Cc1cccs1 | inactive: -6.06% | –
56 | O=C(Nc1cccc(N=Cc2cc(Cl)cc(Br)c2O)c1)c1ccco1 | – | inconclusive [inhibitor, single point]
57 | COc1ccc(OC)c(NC(=O)CC2C(=O)NCCN2C(=O)Nc2cccc(Cl)c2)c1 (stereo not given) | inactive: 13.2% | –
58 | COc1ccc(NC(=S)NC(NC(=O)CCl)C(Cl)(Cl)Cl)c([N+](=O)[O-])c1 (stereo not given) | inactive: 1.62% | –
59 | O=C(N/N=C/c1cccc(OCc2ccccc2)c1)c1ccc(Br)cc1 | – | inconclusive [inhibitor, partial curve, poor fit]
60 | CN(C)c1ccc(/C=N/N=C/c2ccccc2O)cc1 | – | inconclusive [inhibitor, partial curve, poor fit]
61 | c1ccc(OCc2nn3c(-c4n[nH]c5c4CCC5)nnc3s2)cc1 | – | inconclusive [inhibitor, full curve, poor fit]
62 | Nc1cc(C(=O)O)c(N)c2c1C(=O)c1ccccc1C2=O | – | inconclusive [inhibitor, partial curve]
63 | O=C(NC(=S)NNC(=O)c1ccccc1O)c1ccc(F)cc1 | – | inconclusive [inhibitor, single point]
64 | COc1cccc(OC)c1C(=O)NC(=S)NCc1ccccc1 | – | inconclusive [inhibitor, single point]
65 | COc1ccc(N(CC(=O)NC2CCCCC2C)S(=O)(=O)c2c(C)nn(C)c2C)cc1 (stereo not given) | inactive: 4.25% | –
66 | CCN(CC)c1ccc(S(=O)(=O)Nc2cc(Cl)ccc2Cl)cc1NC(=S)NC(=O)C1CCCC1 | – | active: 22.4 µM
67 | CCCCC(=O)Nc1ccccc1C(=O)OCC(=O)c1ccc2c(c1)OCCO2 | – | inconclusive [inhibitor, single point]
68 | Cc1cccc(-c2nc(CS(=O)CC(=O)NCCCSC3CCCCC3)c(C)o2)c1 (stereo not given) | inactive: -7.87% | –
69 | CC(Oc1ccccc1)c1ccnc2nc(N3CCOCC3)nn12 (stereo not given) | inactive: 1.24% | –
70 | CCN(CC)CCOc1ccc2c(c1)C(=NNC(=O)c1ccccn1)c1cc(OCCN(CC)CC)ccc1-2 | – | active: 10 µM
71 | COc1cc(SC)ccc1C(=O)NC1CCCc2ccccc21 (stereo not given) | – | inconclusive [inhibitor, single point]
72 | COc1ccc(-c2noc(CCC(=O)N3CCN(c4cccc(C(F)(F)F)c4)CC3)n2)cc1 | – | inconclusive [inhibitor, single point]
73 | Cc1ccc(OCC(=O)c2cc(C)n(CC(F)(F)F)c2C)c([N+](=O)[O-])n1 | inactive: 8.65% | –
74 | CCOc1ccc(-c2cc(C(=O)OC)[nH]n2)cc1 | inactive: -16% | –
75 | CN1C(=S)SC(N(O)C(=O)Nc2cccc3ccccc23)C1(C)C (stereo not given) | inactive: -0.345% | –
